# Results reported in PubChem BioAssay AID445 (National Center for Advancing Translational Sciences (NCATS), 2006).
# About 40 (0.04%) of roughly 110,000 compounds were called active. Inconclusive results, whose numbers are uncertain, are shown with a selection of clear calls. The call rests on the fitted dose curve; in most records, active means well fitted curve in the direction sought with a large enough effect in the signal ratio (not every such curve was filed as active); inconclusive means small, poorly fitted or top-dose-only effect, or a change in a side signal; inactive means flat fitted curve, though single readings scatter; the % refers to the signal ratio. Potencies of inconclusive entries are doubtful fits and often do not repeat.
# Experiment: IkB Signaling;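 on IkBa stabilization activation: 0% = basal untreated cells and 100% = reference inhibitor full response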
# Conditions: ABC-DLBCL IkBa-CBG/CBR dual luciferase ratio (green luciferase fused to IkBa over red control in OCI-Ly3 lymphoma cells), 4 h; IkBa stabilization activation: at 57.1 µM (top of the series), scaled: untreated 0%, proteasome inhibitor 100% unless noted
# Method in brief: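 Curves were fitted separately to fusion (green), unfused (red) and ratio luminescence, then classed by r2, magnitude and activity. Cells: OCI-Ly3, 4 h compound plus doxycycline at 37C; 10 uM MG-132 defined full response.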
# Potency means the concentration at half of the fitted maximal effect.
Structure (SMILES),IkBa stabilization activation,Potency
Cc1ccc2c(c1)cc(CN(Cc1ccco1)C(=O)COc1ccccc1)c1nnnn12,inconclusive: 1.6% [signal inhibitor],–
CC(=O)Nc1ccc(S(=O)(=O)N2CCC(n3c(C(F)(F)F)nc4cccnc43)CC2)cc1,inactive,–
COc1cccc(-c2cc(C(=O)Nc3cc(Cl)ccc3O)on2)c1,inactive,–
Cc1ccc(NC(=O)CN(C)S(=O)(=O)c2ccc3c(c2)n(C)c(=O)c(=O)n3C)cc1C,inconclusive: 2.52% [signal inhibitor],–
Cc1ccccc1CNC(=O)c1cnc2sc(N3CCOCC3)nn2c1=O,inactive,–
Cc1ccc(-n2nnnc2CNC(=O)C(C)(C)C)cc1C,inconclusive: -0.874% [signal inhibitor],–
Cc1nc(SC(C)C(=O)Nc2ccccc2C)cc(-c2ccccc2)n1 (stereo not given),inconclusive: 2.63% [signal inhibitor],–
Clc1ccc(-c2noc(CN3CCCCC3)n2)cc1,"inactive: 1.93% [at 11.4 µM, scaled: untreated 0%, proteasome inhibitor 100%]",–
Cc1cc2cc(CNC(=O)c3cccs3)ccc2n1C,inactive,–
CCOc1ccc(CCNC(=O)Cn2nc(C)n3c(cc4occc43)c2=O)cc1OCC,inactive,–
CCn1c(COc2cccc(C)c2)nnc1SCC(=O)CC(=O)Nc1ccccc1OC,inconclusive: 6.54% [signal inhibitor],–
COc1ccc(NS(=O)(=O)c2ccc(OC)c3ccccc23)cn1,inconclusive: -0.927% [signal inhibitor],–
Cc1ccc(-c2noc(C(C)NS(=O)(=O)c3ccc(C)cc3)n2)cc1 (stereo not given),inconclusive: -0.106% [signal inhibitor],–
O=C(Nc1cccc(Cl)c1)c1cnc2sc(N3CCCC3)nn2c1=O,–,"inconclusive: 3.98 µM [signal inhibitor, partial curve]"
Cc1ccc(C)c(CN2CCCN(Cc3ccc(F)cc3)S2(=O)=O)c1,inconclusive: 0.00453% [signal inhibitor],–
COc1cc(CNC(=O)c2ccc(Cn3nc(C)c(Cl)c3C)o2)cc(OC)c1,inconclusive: 0.858% [signal inhibitor],–
COc1ccc(S(=O)(=O)N2CCN(c3cc(-c4ccccc4)nc4ncnn34)CC2)cc1,inconclusive: 1.48% [signal inhibitor],–
Cc1nc(-n2nc(C)c(Cc3ccccc3Cl)c2C)sc1C(=O)Nc1ccccc1F,inconclusive: 0.328% [signal inhibitor],–
Cc1cc(C)nc(N(C#N)Cc2ccc(Br)cc2)n1,inconclusive: 3.69% [signal inhibitor],–
CCOC(=O)Cn1c(=O)n(CC2CCCO2)c2nc(-c3ccc(C)cc3)nc(C(N)=O)c21 (stereo not given),inconclusive: 1.4% [signal inhibitor],–
